Results taken from PMC6697693.
Results are given in words; binding and its absence hold for the method and conditions named. Some binding calls cover weakened binding; strength is not graded here.

Chains of the proteins cited; added tags and fusions are not shown. Lines headed by an entry give the natural chain unless they say otherwise; changes in a name come on top.
UniProt Q20774: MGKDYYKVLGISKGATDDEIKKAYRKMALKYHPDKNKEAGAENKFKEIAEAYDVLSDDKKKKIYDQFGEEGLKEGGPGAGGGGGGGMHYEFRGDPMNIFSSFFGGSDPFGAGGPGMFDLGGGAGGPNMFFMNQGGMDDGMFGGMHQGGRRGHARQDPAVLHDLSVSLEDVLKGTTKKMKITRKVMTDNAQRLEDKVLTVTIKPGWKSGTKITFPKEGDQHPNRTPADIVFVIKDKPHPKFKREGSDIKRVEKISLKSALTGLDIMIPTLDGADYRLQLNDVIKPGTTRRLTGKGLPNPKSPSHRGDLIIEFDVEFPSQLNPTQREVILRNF
UniProt O45502: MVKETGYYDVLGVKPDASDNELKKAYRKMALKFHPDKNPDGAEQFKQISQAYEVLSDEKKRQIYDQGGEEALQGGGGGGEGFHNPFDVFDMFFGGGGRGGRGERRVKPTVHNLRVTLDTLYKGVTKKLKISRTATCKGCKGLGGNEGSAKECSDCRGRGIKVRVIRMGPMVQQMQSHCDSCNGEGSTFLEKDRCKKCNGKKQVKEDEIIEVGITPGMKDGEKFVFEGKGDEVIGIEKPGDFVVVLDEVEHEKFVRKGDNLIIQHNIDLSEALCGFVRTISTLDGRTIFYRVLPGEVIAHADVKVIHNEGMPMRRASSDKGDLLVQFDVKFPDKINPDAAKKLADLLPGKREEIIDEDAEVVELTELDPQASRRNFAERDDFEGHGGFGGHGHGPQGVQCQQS
UniProt P09446: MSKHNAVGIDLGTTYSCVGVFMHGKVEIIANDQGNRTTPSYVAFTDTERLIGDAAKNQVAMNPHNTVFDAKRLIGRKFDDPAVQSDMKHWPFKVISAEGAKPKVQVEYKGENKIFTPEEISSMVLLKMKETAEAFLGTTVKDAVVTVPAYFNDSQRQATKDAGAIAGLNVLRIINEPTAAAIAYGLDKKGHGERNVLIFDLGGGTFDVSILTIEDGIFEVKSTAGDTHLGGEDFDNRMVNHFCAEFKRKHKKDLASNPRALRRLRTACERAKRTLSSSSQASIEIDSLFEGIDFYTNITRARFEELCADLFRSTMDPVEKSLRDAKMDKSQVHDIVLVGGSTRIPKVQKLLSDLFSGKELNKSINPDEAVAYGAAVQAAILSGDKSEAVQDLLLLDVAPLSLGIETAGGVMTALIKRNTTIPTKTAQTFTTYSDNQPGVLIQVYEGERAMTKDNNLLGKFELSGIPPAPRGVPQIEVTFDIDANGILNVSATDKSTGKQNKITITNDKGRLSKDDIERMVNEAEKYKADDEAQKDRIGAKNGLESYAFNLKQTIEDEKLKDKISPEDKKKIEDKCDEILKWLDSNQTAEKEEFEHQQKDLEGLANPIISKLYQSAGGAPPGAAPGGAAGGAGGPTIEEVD

Assays:
[1] = target: DNJ-13 (nematode DNAJB-homolog), fluorescently labelled (C. elegans) (UniProt Q20774); test: AUC; sedimentation velocity with fluorescence detection, 600 nM *DNJ-13 with 4 µM Hsc70 variant, absence of nucleotide, 42,000 rpm, 20 °C, 40 mM HEPES/KOH pH 7.5, 150 mM KCl, 1 mM DTT, 5 mM MgCl2; both purified
[2] = target: DNJ-12 (nematode DNAJA-homolog), fluorescently labelled (C. elegans) (UniProt O45502); test: AUC; sedimentation velocity with fluorescence detection, 300 nM *DNJ-12 with Hsc70 variant in the presence of ATP, 42,000 rpm, 20 °C, 40 mM HEPES/KOH pH 7.5, 150 mM KCl, 1 mM DTT, 5 mM MgCl2; both purified
Hsc70 D233N (C. elegans) = Hsc70 D233N (C. elegans) (UniProt P09446); test: AUC; sedimentation velocity, UV/VIS optics, 0.5 mg/mL protein; dc/dt plots and UltraScan II analysis; oligomerization status of Hsc70 variants; both purified
[3] = target: DNJ-12 (nematode DNAJA-homolog), fluorescently labelled (C. elegans) (UniProt O45502); test: AUC; sedimentation velocity with fluorescence detection, 300 nM *DNJ-12 with Hsc70 variant, absence of nucleotide, 42,000 rpm, 20 °C, 40 mM HEPES/KOH pH 7.5, 150 mM KCl, 1 mM DTT, 5 mM MgCl2; both purified
[4] = target: DNJ-13 (nematode DNAJB-homolog), fluorescently labelled (C. elegans) (UniProt Q20774); test: AUC; sedimentation velocity with fluorescence detection, 600 nM *DNJ-13 with Hsc70 variant in the presence of ATP, 42,000 rpm, 20 °C, 40 mM HEPES/KOH pH 7.5, 150 mM KCl, 1 mM DTT, 5 mM MgCl2; both purified
[5] = target: T1, BAG-1 (nematode nucleotide exchange factor), fluorescently labelled (C. elegans) (UniProt O44739); test: AUC; sedimentation velocity with fluorescence detection, 300 nM *BAG-1 with 2 µM Hsc70 variant, 42,000 rpm, 20 °C, 40 mM HEPES/KOH pH 7.5, 150 mM KCl, 1 mM DTT, 5 mM MgCl2; without nucleotide, and with ADP (complex diminished); both purified
T1 sequence (chain, ATTO 488 C5-maleimide at its cysteine residue): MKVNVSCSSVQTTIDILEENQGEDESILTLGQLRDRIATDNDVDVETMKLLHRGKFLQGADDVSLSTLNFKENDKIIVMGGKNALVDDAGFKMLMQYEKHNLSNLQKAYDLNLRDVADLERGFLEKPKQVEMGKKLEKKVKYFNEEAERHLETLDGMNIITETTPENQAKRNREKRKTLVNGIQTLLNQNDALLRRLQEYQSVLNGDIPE

[6] = target: DNJ-13 (nematode DNAJB-homolog), fluorescently labelled (C. elegans) (UniProt Q20774); test: condition: only in the absence of nucleotide (4 µM Hsc70); AUC; sedimentation velocity with fluorescence detection, 600 nM *DNJ-13 with 4 µM Hsc70 variant, absence of nucleotide, 42,000 rpm, 20 °C, 40 mM HEPES/KOH pH 7.5, 150 mM KCl, 1 mM DTT, 5 mM MgCl2; both purified
[7] = target: wild type Hsc70 (nematode Hsc70, HSP-1) (C. elegans) (UniProt P09446); test: AUC; sedimentation velocity, UV/VIS optics, 0.5 mg/mL protein; dc/dt plots and UltraScan II analysis; oligomerization status of Hsc70 variants; both purified
Hsc70 D384N (C. elegans) = Hsc70 D384N (C. elegans) (UniProt P09446); test: as above
Hsc70 A379V (C. elegans) = Hsc70 A379V (C. elegans) (UniProt P09446); test: as above
[8] = target: DNJ-13 (nematode DNAJB-homolog), fluorescently labelled (C. elegans) (UniProt Q20774); test: condition: only in the absence of nucleotide (4 µM Hsc70 A379V); AUC; sedimentation velocity with fluorescence detection, 600 nM *DNJ-13 with 4 µM Hsc70 variant, absence of nucleotide, 42,000 rpm, 20 °C, 40 mM HEPES/KOH pH 7.5, 150 mM KCl, 1 mM DTT, 5 mM MgCl2; both purified

binding [1] | binding [2] | binding (Hsc70 D233N (C. elegans)) | binding [4] | binding [5] | binding [6] | binding [7] | binding (Hsc70 D384N (C. elegans)) | binding (Hsc70 A379V (C. elegans)) | binding [8] | Substance | binding [3]
binds weakly | binds weakly | no binding (tested: 0.5 mg/mL) | binds |  |  |  |  |  |  | Hsc70 D233N (from UniProt P09446 1-640) | no binding (condition: in the absence of nucleotide)
 | binds |  | binds |  | no binding | no binding (tested: 0.5 mg/mL) |  |  |  | wild type Hsc70 (nematode Hsc70, HSP-1) (from UniProt P09446 1-640) | no binding (condition: in the absence of nucleotide)
binds | binds |  | binds |  |  |  | no binding (tested: 0.5 mg/mL) |  |  | Hsc70 D384N (from UniProt P09446 1-640) | no binding (condition: in the absence of nucleotide)
 | binds weakly |  | binds |  |  |  |  | no binding (tested: 0.5 mg/mL) | no binding | Hsc70 A379V (from UniProt P09446 1-640) | no binding (condition: in the absence of nucleotide)

Substance | binding [1] | binding [2] | binding (Hsc70 D233N (C. elegans)) | binding [4] | binding [5] | binding [6] | binding [7] | binding (Hsc70 D384N (C. elegans)) | binding (Hsc70 A379V (C. elegans)) | binding [8] | binding [3]
Hsc70 S321F (from UniProt P09446 1-640) | no binding (tested: 4 µM Hsc70 S321F, absence of nucleotide) |  |  | no binding | no binding (tested: 2 µM Hsc70 S321F) |  |  |  |  |  | 
